Measured values as given in PubChem BioAssay AID2147 (National Center for Advancing Translational Sciences (NCATS), 2009).
Among all 230,000 compounds or so, about 3,600 (1.6%) were called active. The inconclusive results got no clear call from the source; some entries with a clear call stand among them for comparison. Calls come from the whole dose curve; as a rule, active = well fitted inhibition curve with a large enough effect (not every such curve was filed as active); inconclusive = small, poorly fitted or top-dose-only effect, or another doubt; inactive = no such curve, though single readings can be large or run the other way. Where the call is inconclusive, the potency comes from a doubtful curve fit.

What follows are molecules tested against Lysine-specific demethylase 4E (Homo sapiens) (UniProt B2RXH2) (assay: qHTS Assay for Inhibitors of Human Jumonji Domain Containing 2E (JMJD2E)). Conditions: JMJD2E catalytic domain, FDH-coupled NADH fluorescence (FDH is formaldehyde dehydrogenase); series mostly up to 57.1 µM.
Note: nearly all actives have a fitted effect of over 50% in size.
Potency is the fitted concentration of half-maximal effect; tags give direction and shape of the fitted curve.

Chain of UniProt B2RXH2 (B2RXH2 whole entry, looked up, the tested form may be a part): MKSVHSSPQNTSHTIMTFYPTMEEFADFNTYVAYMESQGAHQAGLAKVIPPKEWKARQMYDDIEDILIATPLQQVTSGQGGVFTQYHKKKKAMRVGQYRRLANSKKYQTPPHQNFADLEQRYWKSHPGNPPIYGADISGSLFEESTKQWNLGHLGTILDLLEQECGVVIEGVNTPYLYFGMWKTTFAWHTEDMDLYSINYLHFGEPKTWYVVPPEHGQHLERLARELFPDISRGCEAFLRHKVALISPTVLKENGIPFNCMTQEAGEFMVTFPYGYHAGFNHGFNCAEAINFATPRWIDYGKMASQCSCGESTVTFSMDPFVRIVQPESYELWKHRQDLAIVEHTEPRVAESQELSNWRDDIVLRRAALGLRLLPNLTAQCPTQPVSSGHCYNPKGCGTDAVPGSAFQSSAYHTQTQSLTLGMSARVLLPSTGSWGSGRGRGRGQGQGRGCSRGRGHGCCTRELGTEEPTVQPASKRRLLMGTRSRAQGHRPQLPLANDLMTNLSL

Q: For `COc1ccc(C(CCN2CCCC(C)C2)c2c(OC)cc(OC)c3c(C)cc(=O)oc23)cc1` (stereo not drawn), which Potency is on record?
A: inconclusive: 35.5 µM [inhibitor, single point]

Q: With `CSCC(=O)N1CCCC(CNC(=O)c2ccc(-c3ccccc3)cc2)C1` (stereo not drawn) as the molecule, how does the Potency read?
A: inactive

Q: `COc1ccc(/C=C/C(=O)ONC2=NCCCCC2)cc1OC` was tested. Which Potency did it give?
A: inactive

Q: `Cn1c(C(=O)N2COCC2(C)C)cc2c(=O)n3ccccc3nc21` was tested. Which Potency did it give?
A: inconclusive: 28.2 µM [inhibitor, partial curve]

Q: Which Potency does the source give for `CCn1c(=O)c(=O)[nH]c2cc(C(=O)N3CCN(Cc4ccc5c(c4)OCO5)CC3)ccc21` here?
A: inconclusive: 28.2 µM [inhibitor, partial curve]

Q: For `CCCCNc1nc(C)nc2c1nc(-c1ccccc1)n2CCN(C)C`, which Potency is on record?
A: inconclusive: 28.2 µM [inhibitor, partial curve]

Q: With `COC(=O)C1=C(C)NC(C)=C(C(=O)OC)C1c1ccc(NC(C)=O)cc1` as the molecule, how does the Potency read?
A: inconclusive: 35.5 µM [inhibitor, partial curve]

Q: `COc1cc(C(CC(=O)O)n2cnnn2)ccc1OC(C)C` (stereo not drawn) was tested. Which Potency did it give?
A: inactive

Q: `COC(=O)c1sc(-c2ccc(Cl)cc2)cc1N` was tested. Which Potency did it give?
A: inconclusive: 31.6 µM [inhibitor, partial curve]

Q: For `CCCC1=NN2C(=N)/C(=C\c3cc(C)n(Cc4ccccc4)c3C)C(=O)N=C2S1`, which Potency is on record?
A: inconclusive: 28.2 µM [inhibitor, partial curve]

Q: For `CCOc1ccc(C(=O)c2ccc(OC)c(O)c2O)cc1`, which Potency is on record?
A: active: 25.1 µM

Q: How did the Potency turn out when `CCOc1ccc(NC(=S)N(CCN2CCOCC2)Cc2ccc3c(c2)CCCN3CC)cc1` was run?
A: inconclusive: 25.1 µM [inhibitor, single point]

Q: How did the Potency turn out when `CCCSc1nnc(CNC(=O)C23CC4CC(CC(C4)C2)C3)n1Cc1ccccc1` was run?
A: inactive

Q: With `Oc1ccc2ccccc2c1N=Nc1ccccn1` as the molecule, how does the Potency read?
A: inconclusive: 35.5 µM [inhibitor, single point]

Q: For `COc1ccc(Cn2c(O)c(C=Nc3ccccc3C(=O)O)c3ccccc3c2=O)cc1`, which Potency is on record?
A: inconclusive: 35.5 µM [inhibitor, single point]

Q: With `COc1cccc(/C=N/NC(=O)CNC(=O)C2COc3ccccc3O2)c1O` (stereo not drawn) as the molecule, how does the Potency read?
A: active: 17.8 µM

Q: How did the Potency turn out when `O=C(ONc1ccc(N=NC(=O)c2ccccc2O)cc1)c1ccccc1` was run?
A: inactive

Q: Which Potency does the source give for `Cc1ccsc1C1NC(=O)c2ccccc2N1` (stereo not drawn) here?
A: active: 28.2 µM

Q: Which Potency does the source give for `CC[C@@H]1OC(=O)[C@@H](C)[C@H](O[C@H]2C[C@@](C)(OC)[C@@H](O)[C@H](C)O2)C(C)[C@H](O[C@H]2O[C@@H](C)C[C@@H](N(C)C)[C@@H]2O)[C@@](C)(O)C[C@H](C)C(=O)[C@@H](C)[C@H](O)[C@@]1(C)O` (stereo partly drawn) here?
A: inactive

Q: How did the Potency turn out when `O=S(=O)(c1cccc(-c2cn3cccnc3n2)c1)N1CCOCC1` was run?
A: inconclusive: 28.2 µM [inhibitor, partial curve]

Q: How did the Potency turn out when `COc1nsnc1NS(=O)(=O)c1ccc(NC(=S)NC(=O)c2cccnc2)cc1` was run?
A: inactive

Q: With `CCCn1c(=O)c2ccccc2n2c(SCc3cc(=O)oc4ccc5ccccc5c34)nnc12` as the molecule, how does the Potency read?
A: inconclusive: 28.2 µM [inhibitor, partial curve]

Q: For `O=C(NC(=S)Nc1ccccc1N1CCOCC1)c1ccco1`, which Potency is on record?
A: inactive

Q: How did the Potency turn out when `CCOc1ccc(-c2cc(C)n3nc(C(N)=O)cc3n2)cc1` was run?
A: inconclusive: 31.6 µM [inhibitor, partial curve]

Q: How did the Potency turn out when `CNC(=O)c1[nH]cnc1C(=O)N[C@@H](C)C(=O)OCc1ccccc1` was run?
A: inactive

Q: Which Potency does the source give for `CC12Cc3ccc4ccccc4c3C=C1C[N+](C)(C)C2` (stereo not drawn) here?
A: inconclusive: 39.8 µM [inhibitor, single point]

Q: With `N#Cc1nc(-c2ccc(F)cc2)oc1NCc1ccccc1` as the molecule, how does the Potency read?
A: inconclusive: 31.6 µM [inhibitor, partial curve]

Q: How did the Potency turn out when `Cc1ccc2ncnc(NCCCCCC(=O)O)c2c1` was run?
A: inconclusive: 28.2 µM [inhibitor, single point]

Q: For `CC(C)C1NC(C(=O)O)Cc2c1[nH]c1ccccc21` (stereo not drawn), which Potency is on record?
A: inconclusive: 28.2 µM [inhibitor, partial curve]

Q: Which Potency does the source give for `O=C1CCCC2=C1C(c1cccs1)Nc1ccc3ncccc3c12` (stereo not drawn) here?
A: inconclusive: 39.8 µM [inhibitor, single point]

Q: For `CN(Cc1c(F)cccc1Cl)c1ccc(S(=O)(=O)N2CCOCC2)cn1`, which Potency is on record?
A: inconclusive: 7.08 µM [inhibitor, full curve]

Q: `CC(C)OCCCn1c(=NC(=O)c2cccs2)c(C#N)cc2c(=O)n3ccccc3nc21` was tested. Which Potency did it give?
A: inconclusive: 31.6 µM [inhibitor, partial curve]

Q: With `CCOC(=O)c1c(NC(=O)COC(=O)Cn2c(C)nc3ccccc32)sc2c1CCCC2` as the molecule, how does the Potency read?
A: inactive

Q: For `CCCN(CCC)c1nc(N)c(C#N)c(CC#N)c1C#N`, which Potency is on record?
A: inconclusive: 25.1 µM [inhibitor, partial curve]

Q: Which Potency does the source give for `COC(=O)c1cc(-c2ccc3c(c2)OCO3)nc2ccccc12` here?
A: inconclusive: 31.6 µM [inhibitor, single point]

Q: How did the Potency turn out when `O=C(/C=C/c1cccnc1)/C=C/c1cccnc1` was run?
A: inconclusive: 39.8 µM [inhibitor, single point]

Q: For `COc1ccccc1C(=O)Nc1ccc2c3c(cccc13)CC2`, which Potency is on record?
A: inconclusive: 39.8 µM [inhibitor, single point]

Q: With `CN(Cc1ccccc1)C(=O)c1c[nH]c2ccc(S(=O)(=O)N3CCOCC3)cc2c1=O` as the molecule, how does the Potency read?
A: inconclusive: 31.6 µM [inhibitor, partial curve]

Q: Which Potency does the source give for `COC(=O)c1ccccc1S(=O)(=O)N(CCCN1CCOCC1)Cc1cccs1` here?
A: inconclusive: 35.5 µM [inhibitor, single point]

Q: How did the Potency turn out when `CCOC(=O)c1cnc2c(C)cccc2c1NCc1ccco1` was run?
A: inconclusive: 39.8 µM [inhibitor, single point]

Q: With `CCOC(=O)c1c(NC(=O)CN2C(=O)NC(C)(c3ccc(OC(F)F)cc3)C2=O)sc(C)c1C` (stereo not drawn) as the molecule, how does the Potency read?
A: inconclusive: 35.5 µM [inhibitor, single point]

Q: With `COc1ccc(OC)c(C2=NOC(C(=O)N3CCN(c4ccccc4)CC3)C2)c1` (stereo not drawn) as the molecule, how does the Potency read?
A: inconclusive: 39.8 µM [inhibitor, single point]

Q: For `NCC1CCC(N)C(O[C@@H]2C(O)[C@H](O[C@H]3OC(CO)C(O)C(N)C3O)[C@@H](N)C[C@H]2N)O1` (stereo partly drawn), which Potency is on record?
A: inactive
